Here are results for 15 compounds from the supplement of paper PMC10600219.

Where a name gives a salt, the structure may show the parent alone. ± gives the standard deviation of the averaged measurements. The full ranking holds about 2,800 compounds; the median of “cell viability relative to vehicle” is about 1.1, and the lowest 2% start at about 0.19. This is one part of the list.

The subject of this test is NCI-H2228 parental. The test is described as follows: cell viability relative to vehicle (fraction of vehicle); NCI-H2228 is an ALK-positive lung cancer line and DTP means drug-tolerant persister; higher = less growth inhibition. Conditions: 100 nM; treatment time 6 days. The method, boiled down: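 The 3114-agent TargetMol anti-cancer compound library was tested at 100 nM for 6 days on parental NCI-H2228 cells and on persister cells derived with 1000 nM of a targeted drug for 13 days. ATP readout by the CellTiter-Glo 3D Cell Viability Assay gave cell viability relative to DMSO vehicle-treated cells.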
On to `C[C@@H]1CC[C@@]2(OC1)O[C@H]1C[C@H]3[C@@H]4CC=C5C[C@@H](O[C@@H]6O[C@H](CO)[C@@H](O[C@@H]7O[C@@H](C)[C@H](O)[C@@H](O)[C@H]7O)[C@H](O)[C@H]6O[C@@H]6O[C@@H](C)[C@H](O)[C@@H](O)[C@H]6O)CC[C@]5(C)[C@H]4CC[C@]3(C)[C@H]1[C@@H]2C` [Dioscin], for which the cell viability is 1.09.
As to `CC1(C)C(C(=O)Nc2ccc(S(=O)(=O)c3ccc(NC(=O)C4C(C)(C)C4(C)C)cc3)cc2)C1(C)C`, the cell viability was found to be 0.839.
Next, `C[C@]12CC[C@@H]3c4ccc(OC(=O)N(CCCl)CCCl)cc4CC[C@H]3[C@@H]1CC[C@@H]2OP(=O)(O)O` [Estramustine phosphate sodium]: 0.999; `COc1cc2cc(c1Cl)N(C)C(=O)C[C@H](OC(=O)C(C)C)[C@]1(C)O[C@@H]1[C@H](C)[C@@H]1C[C@@](O)(NC(=O)O1)[C@H](OC)/C=C/C=C(\C)C2` [Ansamitocin P-3]: 0.233; `COC(=O)[C@@H](N)CCCNC(=N)N[N+](=O)[O-]` [L-NAME hydrochloride]: 1.11.
With `C[N+]1([O-])[C@@H]2CC(OC(=O)[C@H](CO)c3ccccc3)C[C@H]1[C@@H]1O[C@@H]12` (stereo not given in full) [Scopolamine N-oxide HBr], the cell viability came to 1.19.
The value for `CN1Cc2c(ccc3c2OCO3)[C@@H]2[C@H]1c1cc3c(cc1C[C@@H]2O)OCO3` [Chelidonine] was 1.14; that for `CC(=O)O[C@H]1C[C@@H]2CC[C@@H]3[C@H](CC[C@@]4(C)[C@H]3C[C@H]([N+]3(C)CCCCC3)[C@@H]4OC(C)=O)[C@@]2(C)C[C@@H]1[N+]1(C)CCCCC1` [Pancuronium bromide] was 1.03.
The value for `Cc1ccc(/N=C/N(C)/C=N/c2ccc(C)cc2C)c(C)c1` [Amitraz] was 1.12.
The value for `O=c1ccc2cc(O[C@@H]3O[C@H](CO)[C@@H](O)[C@H](O)[C@H]3O)c(O)cc2o1` [Esculin] was 0.909; that for `CC(NC(C)(C)C)C(=O)c1cccc(Cl)c1` (stereo not given) [Bupropion hydrochloride] was 0.997.
As to `CC(C)=CCC[C@](C)(O)[C@H]1CC[C@]2(C)[C@@H]1[C@H](O)C[C@@H]1[C@@]3(C)CC[C@H](O[C@@H]4O[C@H](CO)[C@@H](O)[C@H](O)[C@H]4O)C(C)(C)[C@@H]3CC[C@]12C` [Ginsenoside Rh2], the cell viability is 1.09 ± 0.14.
Next, `NCC(CC(=O)O)c1ccc(Cl)cc1` (stereo not given) [Baclofen]: 1.01; `CC(=O)O[C@H]1CC[C@H]2[C@@H]3CCC4=CC(=O)CCC4=C3C=C[C@]12C` [Trenbolone acetate]: 1.21; `CC(C)[C@]12O[C@H]1[C@@H]1O[C@]13[C@]1(O[C@H]1C[C@H]1C4=C(CC[C@@]13C)C(=O)OC4)[C@@H]2O` [Triptolide]: 0.121.
